These are yes or no findings as the source states them, for the method shown. Binding seen in cells or lysates may run through a third protein. Some binding calls cover weakened binding; strength is not graded here. Sequences can lack the tags named with a protein.
T1: DS_122-HA (chimeric SPA1/SPA2 domain-swap protein: N-terminal domain of SPA1, coiled-coil and WD-repeat domains of SPA2) (Arabidopsis thaliana) (UniProt Q9SYX2+Q9T014)
T1 sequence: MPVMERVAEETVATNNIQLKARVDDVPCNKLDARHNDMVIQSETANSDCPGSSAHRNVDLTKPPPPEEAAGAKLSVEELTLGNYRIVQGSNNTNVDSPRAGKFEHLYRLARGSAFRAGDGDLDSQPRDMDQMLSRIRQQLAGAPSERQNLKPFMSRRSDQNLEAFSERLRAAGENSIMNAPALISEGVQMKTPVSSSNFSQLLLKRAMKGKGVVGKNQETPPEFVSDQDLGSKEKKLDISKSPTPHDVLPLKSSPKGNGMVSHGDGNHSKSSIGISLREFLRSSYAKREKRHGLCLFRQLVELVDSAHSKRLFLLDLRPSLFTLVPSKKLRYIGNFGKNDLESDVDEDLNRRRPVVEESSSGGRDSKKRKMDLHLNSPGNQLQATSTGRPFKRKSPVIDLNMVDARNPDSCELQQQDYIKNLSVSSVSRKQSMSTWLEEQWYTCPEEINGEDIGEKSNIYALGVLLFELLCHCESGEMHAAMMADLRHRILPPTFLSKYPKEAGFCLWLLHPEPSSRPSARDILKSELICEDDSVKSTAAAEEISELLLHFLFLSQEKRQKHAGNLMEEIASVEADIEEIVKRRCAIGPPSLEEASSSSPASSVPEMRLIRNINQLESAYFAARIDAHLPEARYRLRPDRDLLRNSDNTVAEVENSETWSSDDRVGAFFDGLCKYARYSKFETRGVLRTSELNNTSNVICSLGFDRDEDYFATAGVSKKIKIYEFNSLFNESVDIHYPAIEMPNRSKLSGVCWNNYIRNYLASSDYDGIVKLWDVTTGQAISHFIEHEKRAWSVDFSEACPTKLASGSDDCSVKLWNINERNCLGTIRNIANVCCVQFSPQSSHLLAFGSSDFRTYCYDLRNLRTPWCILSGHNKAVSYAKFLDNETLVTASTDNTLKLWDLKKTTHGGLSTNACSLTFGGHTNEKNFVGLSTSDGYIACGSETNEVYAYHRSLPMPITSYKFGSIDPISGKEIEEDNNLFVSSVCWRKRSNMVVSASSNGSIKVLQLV

Amino acid sequences for entries named in this document (tags omitted).
UniProt Q43125: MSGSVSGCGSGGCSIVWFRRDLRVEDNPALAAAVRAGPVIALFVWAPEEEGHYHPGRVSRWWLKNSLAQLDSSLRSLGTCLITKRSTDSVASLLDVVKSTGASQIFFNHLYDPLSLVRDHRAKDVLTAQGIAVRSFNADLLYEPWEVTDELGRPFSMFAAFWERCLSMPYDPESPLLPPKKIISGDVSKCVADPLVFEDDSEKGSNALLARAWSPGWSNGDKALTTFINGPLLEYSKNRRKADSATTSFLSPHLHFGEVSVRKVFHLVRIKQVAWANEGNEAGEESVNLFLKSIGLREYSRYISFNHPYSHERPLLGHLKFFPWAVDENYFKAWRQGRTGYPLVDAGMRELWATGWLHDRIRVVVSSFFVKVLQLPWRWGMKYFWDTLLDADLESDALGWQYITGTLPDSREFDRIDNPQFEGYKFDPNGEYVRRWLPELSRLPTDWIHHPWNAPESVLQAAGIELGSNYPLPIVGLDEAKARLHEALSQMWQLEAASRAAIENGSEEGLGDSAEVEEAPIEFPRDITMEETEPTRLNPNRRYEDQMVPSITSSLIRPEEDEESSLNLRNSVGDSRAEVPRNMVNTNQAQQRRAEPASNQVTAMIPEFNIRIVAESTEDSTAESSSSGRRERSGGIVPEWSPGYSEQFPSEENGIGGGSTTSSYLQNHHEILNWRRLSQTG

T2: SPA2-HA (SUPPRESSOR OF PHYA-105 2, full-length, C-terminal HA tag) (Arabidopsis thaliana) (UniProt Q9T014)
T2 sequence: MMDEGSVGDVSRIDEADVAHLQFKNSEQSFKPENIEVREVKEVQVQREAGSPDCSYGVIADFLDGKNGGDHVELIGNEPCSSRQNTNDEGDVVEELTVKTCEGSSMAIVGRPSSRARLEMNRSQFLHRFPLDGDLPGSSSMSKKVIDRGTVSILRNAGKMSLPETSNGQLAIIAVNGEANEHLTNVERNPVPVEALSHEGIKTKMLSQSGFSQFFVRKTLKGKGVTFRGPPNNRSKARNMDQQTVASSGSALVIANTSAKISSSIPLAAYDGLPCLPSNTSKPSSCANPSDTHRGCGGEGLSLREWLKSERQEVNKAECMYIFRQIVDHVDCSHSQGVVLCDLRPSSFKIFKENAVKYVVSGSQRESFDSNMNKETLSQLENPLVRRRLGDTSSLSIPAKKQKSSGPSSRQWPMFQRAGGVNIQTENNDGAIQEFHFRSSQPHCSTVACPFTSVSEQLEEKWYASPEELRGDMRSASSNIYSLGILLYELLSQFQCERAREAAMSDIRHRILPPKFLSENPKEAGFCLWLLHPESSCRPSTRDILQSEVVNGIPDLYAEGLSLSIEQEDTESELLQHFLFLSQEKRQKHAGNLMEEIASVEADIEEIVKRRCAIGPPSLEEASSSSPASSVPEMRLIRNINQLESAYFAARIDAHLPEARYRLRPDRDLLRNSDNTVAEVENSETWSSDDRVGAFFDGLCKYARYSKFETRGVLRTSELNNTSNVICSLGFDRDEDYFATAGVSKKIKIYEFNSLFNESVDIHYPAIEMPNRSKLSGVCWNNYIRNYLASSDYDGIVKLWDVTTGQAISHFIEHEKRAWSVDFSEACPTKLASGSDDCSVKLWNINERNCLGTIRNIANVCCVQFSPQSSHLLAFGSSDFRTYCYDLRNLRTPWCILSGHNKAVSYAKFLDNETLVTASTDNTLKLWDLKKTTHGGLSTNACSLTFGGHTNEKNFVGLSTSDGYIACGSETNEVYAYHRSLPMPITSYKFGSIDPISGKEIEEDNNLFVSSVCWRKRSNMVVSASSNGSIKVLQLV

T3: SPA1-HA (SUPPRESSOR OF PHYA-105 1, full-length, C-terminal HA tag) (Arabidopsis thaliana) (UniProt Q9SYX2)
T3 sequence: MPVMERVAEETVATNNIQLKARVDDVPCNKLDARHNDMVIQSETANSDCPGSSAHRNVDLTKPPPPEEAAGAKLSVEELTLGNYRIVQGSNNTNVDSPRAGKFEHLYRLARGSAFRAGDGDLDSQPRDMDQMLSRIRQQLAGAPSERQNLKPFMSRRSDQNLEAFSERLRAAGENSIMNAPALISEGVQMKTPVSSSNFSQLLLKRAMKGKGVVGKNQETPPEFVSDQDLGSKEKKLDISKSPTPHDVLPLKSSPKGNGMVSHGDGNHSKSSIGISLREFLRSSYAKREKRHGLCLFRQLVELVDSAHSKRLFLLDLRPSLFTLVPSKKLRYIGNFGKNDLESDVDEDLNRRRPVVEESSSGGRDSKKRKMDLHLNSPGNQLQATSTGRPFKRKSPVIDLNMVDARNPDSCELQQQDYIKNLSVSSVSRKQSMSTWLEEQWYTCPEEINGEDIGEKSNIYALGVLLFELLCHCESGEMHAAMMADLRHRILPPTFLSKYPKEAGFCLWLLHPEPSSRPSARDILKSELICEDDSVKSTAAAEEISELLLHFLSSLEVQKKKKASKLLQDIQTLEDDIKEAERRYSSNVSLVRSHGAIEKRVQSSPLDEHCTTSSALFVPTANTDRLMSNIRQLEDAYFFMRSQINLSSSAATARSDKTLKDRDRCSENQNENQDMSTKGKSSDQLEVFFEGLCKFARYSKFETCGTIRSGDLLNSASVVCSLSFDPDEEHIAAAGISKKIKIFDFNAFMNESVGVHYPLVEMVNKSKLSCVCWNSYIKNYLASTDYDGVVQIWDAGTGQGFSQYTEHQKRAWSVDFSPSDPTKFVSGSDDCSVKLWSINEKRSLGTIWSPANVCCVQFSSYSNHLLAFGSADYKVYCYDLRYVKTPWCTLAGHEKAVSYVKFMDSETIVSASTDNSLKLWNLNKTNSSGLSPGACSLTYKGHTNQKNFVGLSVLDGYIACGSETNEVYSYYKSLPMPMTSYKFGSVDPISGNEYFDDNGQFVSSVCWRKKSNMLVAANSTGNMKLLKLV

T4: SPA2-HA (SUPPRESSOR OF PHYA-105 2, full-length, C-terminal HA tag) (Arabidopsis thaliana), Q9T014
T4 chain: T2 sequence

B1: cryptochrome 2, Q96524 1-612 (receptor)
chain: MKMDKKTIVWFRRDLRIEDNPALAAAAHEGSVFPVFIWCPEEEGQFYPGRASRWWMKQSLAHLSQSLKALGSDLTLIKTHNTISAILDCIRVTGATKVVFNHLYDPVSLVRDHTVKEKLVERGISVQSYNGDLLYEPWEIYCEKGKPFTSFNSYWKKCLDMSIESVMLPPPWRLMPITAAAEAIWACSIEELGLENEAEKPSNALLTRAWSPGWSNADKLLNEFIEKQLIDYAKNSKKVVGNSTSLLSPYLHFGEISVRHVFQCARMKQIIWARDKNSEGEESADLFLRGIGLREYSRYICFNFPFTHEQSLLSHLRFFPWDADVDKFKAWRQGRTGYPLVDAGMRELWATGWMHNRIRVIVSSFAVKFLLLPWKWGMKYFWDTLLDADLECDILGWQYISGSIPDGHELDRLDNPALQGAKYDPEGEYIRQWLPELARLPTEWIHHPWDAPLTVLKASGVELGTNYAKPIVDIDTARELLAKAISRTREAQIMIGAAPDEIVADSFEALGANTIKEPGLCPSVSSNDQQVPSAVRYNGSKRVKPEEEEERDMKKSRGFDERELFSTAESSSSSSVFFVSQSCSLASEGKNLEGIQDSSDQITTSLGKNGCK

Legend:
Assay in all cases: co-IP; SPA-HA proteins immunoprecipitated with α-HA beads (μMACS Anti-HA Starting Kit) from extracts of 4-day-old dark-grown seedlings transferred to 50 μmol m^-2 s^-1 B for 1 h; seedlings pre-incubated in 100 μM MG132 and 10 μM clasto-lactacystin β-lactone; cry1 and cry2 detected with α-cry1 and α-cry2 antibodies; five times more extract for SPA1::SPA2-HA 64 and DS_122-HA 27
[1] = biological target: T1, DS_122-HA (chimeric SPA1/SPA2 domain-swap protein: N-terminal domain of SPA1, coiled-coil and WD-repeat domains of SPA2) (Arabidopsis thaliana)
[2] = biological target: T2, SPA2-HA (SUPPRESSOR OF PHYA-105 2, full-length, C-terminal HA tag) (Arabidopsis thaliana)
[3] = biological target: T3, SPA1-HA (SUPPRESSOR OF PHYA-105 1, full-length, C-terminal HA tag) (Arabidopsis thaliana)
[4] = biological target: T4, SPA2-HA (SUPPRESSOR OF PHYA-105 2, …); settings: remark: other sources report otherwise

Row | Molecule | binding [1] | binding [2] | binding [3] | binding [4]
1 | cryptochrome 1 (from UniProt Q43125 1-681) (receptor) | binds | binds | binds | 
2 | cryptochrome 2 (from UniProt Q96524 1-612) (receptor) | binds |  |  | 
3 | B1 |  |  |  | no binding
